# Results reported in PubChem BioAssay (Tox21).
# Several values for one entry are separate records, joined by “and”; a condition that tells them apart may be missing. Equal entries are not always repeated. Inconclusive results, whose numbers are uncertain, are shown with a selection of clear calls. For some of these results: A potency beside an inconclusive call is a rough fit, not a confirmed value. Activity calls are given as the source filed them. Unless noted, the call rests on the fitted dose curve; in most records, active means well fitted curve in the direction sought with a large enough effect in the repeat runs; inconclusive means weak or mixed curves; inactive means no such curve, though single readings can be large; an effect the other way counts as inactive or inconclusive.
# What was measured:
# [1] = qHTS assay to identify small molecule antagonists of the retinoid acid receptor (RAR) signaling pathway - cell viability counter screen (AID 1159551); further: nearly all actives have a fitted effect of over 35% in size
# Outline: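 Cytotoxicity counter screen in C3RL4 cells: 6 h compound exposure with 1 uM retinol (final), viability from cellular ATP by luminescence.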
# [2] = qHTS assay to identify small molecule antagonists of the retinoic acid receptor (RAR) signaling pathway (AID 1159552; further: nearly all actives have a fitted effect of over 50% in size)
# Outline: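 Luminescence from a RARE luciferase reporter in C3RL4 cells served as read-out. Cells received compounds together with 1 uM final retinol and incubated 6 hr at 37 C before detection reagent was added for 30 min at room temperature.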
# [3] = qHTS assay to identify small molecule agonists of the retinoic acid receptor (RAR) signaling pathway (AID 1159553); conditions: C3RL4 RARE luciferase reporter, agonist, 6 h; activation: at 73.3 µM (top of the series) unless noted; on activation: on the % scale 0 is the no-effect control and ±100 the full control effect
# Outline: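 Agonist activity was scored in C3RL4 cells bearing a retinoic acid response element luciferase construct. Cells were treated with compounds for 6 hr at 37 C, and luciferase signal was measured as luminescence.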
# [4] = qHTS assay to identify small molecule agonists of the constitutive androstane receptor (CAR) signaling pathway - cell viability counter screen (AID 1224836); further: nearly all actives have a fitted effect of over 45% in size
# Outline: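 Viability read-out: CellTiter-Fluor fluorescence after 23 h compound exposure at 37 C/5% CO2 in double-stable HepG2-CYP2B6-hCAR cells, with PK11195 present at 0.75 uM final; compounds tested in 15-point titration.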
# [5] = qHTS assay to identify small molecule antagonists of the constitutive androstane receptor (CAR) signaling pathway - cell viability counter screen (AID 1224837); further: nearly all actives have a fitted effect of over 45% in size
# Outline: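 Multiplexed cytotoxicity read-out for the CAR antagonist screen: double-stable HepG2-CYP2B6-hCAR cells co-treated with 50 nM CITCO (final) and compound over 15 concentrations, incubated 23 hr, then assessed by CellTiter-Fluor fluorescence.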
# [6] = molecular target: Nuclear receptor subfamily 1 group I member 3 (Homo sapiens) (UniProt Q14994); assay: qHTS assay to identify small molecule antagonists of the constitutive androstane receptor (CAR) signaling pathway (AID 1224838); further: nearly all actives have a fitted effect of over 40% in size
# Outline: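 Compounds were titrated across 15 concentrations onto HepG2 cells double-stably expressing hCAR and a CYP2B6-2.2kb reporter, together with 50 nM CITCO (final). After 24 h at 37 C, luciferase activity was measured by luminescence.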
# [7] = qHTS assay to identify small molecule antagonists of the estrogen related receptor signaling pathway with the pleiotropic PPARgamma coactivator (PGC) from Tox21 10K library - cell viability counter screen (AID 1224840; active means well fitted cell-killing curve with a large enough effect in the repeat runs, not every such curve was filed as active; inconclusive means weak or mixed curves, or effect the other way; inactive means no such curve, though single readings can be large or run the other way; further: nearly all actives have a fitted effect of over 40% in size)
# Outline: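 Step one, plate 2,000 PGC/ERR cells per well; step two, incubate 6 h at 37 C/5% CO2; step three, pin-transfer compounds; step four, incubate 17.5 h; step five, add CellTiter-Fluor and read fluorescence after 30 min.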
# [8] = molecular target: Thyrotropin receptor (Homo sapiens) (UniProt P16473); assay: qHTS assay to identify small molecule agonists of the thyroid stimulating hormone receptor (TSHR) signaling pathway (AID 1224843; calls by dose curve; further: nearly all actives have a fitted effect of over 45% in size; on activation: on the % scale 0 is the no-effect control and ±100 the full control effect); conditions: TSHR-HEK293 cells, cAMP HTRF, agonist mode, 30 min; activation: at 92.4 µM (top of the series) unless noted
# Outline: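 Screening of the Tox21 10K collection used HEK293 cells engineered with TSHR at 800 cells per well. After a 30-min room-temperature compound exposure, HTRF cAMP reagents were added and fluorescence recorded 1 h later.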
# [9] = qHTS assay to identify small molecule agonists of the hypoxia (HIF-1) signaling pathway - cell viability counter screen (AID 1224844; calls by dose curve; further: nearly all actives have a fitted effect of over 50% in size)
# Outline: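 Tox21 10K compounds were added to HRE-bla ME-180 cells (0.5% dialyzed FBS) and incubated 17 hrs at 37C; ATP-based CellTiter-Glo luminescence then reported cell viability in the same wells.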
# [10] = qHTS assay to identify small molecule antagonists of the estrogen related receptor (ERR) signaling pathway from Tox21 library - cell viability counter screen (AID 1224834); further: nearly all actives have a fitted effect of over 30% in size
# Outline: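 Cytotoxicity of test substances is gauged in the same ERR cells used for the antagonist screen, after 17.5 h of compound treatment at 37 C, by CellTiter-Fluor fluorescence measured after 30 min.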
# [11] = molecular target: Luciferin 4-monooxygenase (Photinus pyralis) (UniProt P08659); assay: qHTS assay to identify small molecule inhibitors of firefly luciferase (AID 1224835); further: nearly all actives have a fitted effect of over 25% in size
# Outline: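 Inhibition of purified Photinus luciferase is measured by luminescence. Substrate levels (D-luciferin, ATP) sit at their KM values. Each compound is tested in a concentration series.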
# [12] = qHTS assay to identify small molecule antagonists of the estrogen related receptor signaling pathway with the pleiotropic PPARgamma coactivator (PGC) from Tox21 10K library (AID 1224841; call rule not given here; further: actives are mostly falling curves and most rising ones were filed inactive; nearly all actives have a fitted effect of over 50% in size)
# Outline: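 Antagonism in this quantitative HTS is taken from loss of luciferase signal in PGC/ERR cells. Cells (2,000/well) are treated with compounds in DMSO after a 6 h settling period and read by One-Glo luminescence after 18 h.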
# [13] = molecular target: Nuclear receptor subfamily 1 group I member 3 (Homo sapiens) (UniProt Q14994); assay: qHTS assay to identify small molecule agonists of the constitutive androstane receptor (CAR) signaling pathway (AID 1224839); further: nearly all actives have a fitted effect of over 15% in size
# Outline: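 Luminescence read-out (ONE-Glo, 30 min, room temperature) from double-stable HepG2-CYP2B6-hCAR cells exposed 24 h to 15-point compound series in presence of 0.75 uM PK11195 final.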
# Potency means the concentration at half of the fitted maximal effect; tags describe the fitted curve by direction and shape or compound fluorescence and quenching.
# Chain of UniProt P16473 (P16473 whole entry, looked up): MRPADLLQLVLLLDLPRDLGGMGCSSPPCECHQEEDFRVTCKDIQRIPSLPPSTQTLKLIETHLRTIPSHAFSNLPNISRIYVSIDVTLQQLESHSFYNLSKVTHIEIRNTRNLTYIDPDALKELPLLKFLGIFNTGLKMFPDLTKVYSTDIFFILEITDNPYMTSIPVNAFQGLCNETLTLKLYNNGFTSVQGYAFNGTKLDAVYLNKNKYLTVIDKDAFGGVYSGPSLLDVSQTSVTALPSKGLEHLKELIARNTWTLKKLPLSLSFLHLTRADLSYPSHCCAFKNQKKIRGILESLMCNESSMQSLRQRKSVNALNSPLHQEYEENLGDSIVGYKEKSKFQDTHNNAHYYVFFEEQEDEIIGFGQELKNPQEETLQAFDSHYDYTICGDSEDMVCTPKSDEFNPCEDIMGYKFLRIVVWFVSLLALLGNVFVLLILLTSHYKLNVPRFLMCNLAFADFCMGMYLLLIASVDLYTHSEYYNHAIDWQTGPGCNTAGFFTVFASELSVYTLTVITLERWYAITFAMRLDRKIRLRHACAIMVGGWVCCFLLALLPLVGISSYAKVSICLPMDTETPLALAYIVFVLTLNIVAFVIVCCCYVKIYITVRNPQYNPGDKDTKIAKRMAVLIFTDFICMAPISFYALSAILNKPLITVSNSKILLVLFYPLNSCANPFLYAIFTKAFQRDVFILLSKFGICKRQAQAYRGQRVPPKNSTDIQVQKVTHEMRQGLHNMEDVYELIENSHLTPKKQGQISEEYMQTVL
# Chain of UniProt Q14994 (Q14994 whole entry, looked up): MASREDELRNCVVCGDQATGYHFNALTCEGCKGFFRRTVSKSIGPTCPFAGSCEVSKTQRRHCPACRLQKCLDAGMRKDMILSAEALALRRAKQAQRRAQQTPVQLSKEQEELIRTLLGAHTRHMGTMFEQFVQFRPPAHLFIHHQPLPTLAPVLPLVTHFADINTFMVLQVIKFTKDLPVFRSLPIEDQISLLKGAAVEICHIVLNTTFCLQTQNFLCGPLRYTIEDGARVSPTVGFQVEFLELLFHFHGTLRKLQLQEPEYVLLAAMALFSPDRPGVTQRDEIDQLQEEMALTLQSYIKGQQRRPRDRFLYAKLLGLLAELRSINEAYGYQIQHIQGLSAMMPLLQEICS
# Chain of UniProt P08659 (P08659 whole entry, looked up): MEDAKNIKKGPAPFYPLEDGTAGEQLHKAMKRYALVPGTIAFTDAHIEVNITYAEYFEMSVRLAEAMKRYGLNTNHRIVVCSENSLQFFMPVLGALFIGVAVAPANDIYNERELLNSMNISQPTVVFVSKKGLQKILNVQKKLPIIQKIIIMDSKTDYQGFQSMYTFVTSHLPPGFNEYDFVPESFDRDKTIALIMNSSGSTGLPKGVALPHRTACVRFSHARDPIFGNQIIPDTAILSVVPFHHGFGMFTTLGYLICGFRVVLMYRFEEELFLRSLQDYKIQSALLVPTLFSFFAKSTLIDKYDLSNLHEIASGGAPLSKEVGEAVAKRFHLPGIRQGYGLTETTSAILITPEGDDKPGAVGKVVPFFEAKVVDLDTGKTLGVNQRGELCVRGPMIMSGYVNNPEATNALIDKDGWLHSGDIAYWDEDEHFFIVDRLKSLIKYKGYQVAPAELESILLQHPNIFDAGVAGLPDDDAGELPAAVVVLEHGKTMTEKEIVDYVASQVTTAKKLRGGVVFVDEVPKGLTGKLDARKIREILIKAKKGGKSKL
smiles,measurement,setting,value
CCCN(CCC)c1c([N+](=O)[O-])cc(C(F)(F)F)c(N)c1[N+](=O)[O-],Potency,[1],active: 60.9 µM
same,Potency,[2],active: 30.5 µM
same,Potency,[3],inconclusive: 54.3 µM [inhibitor]
same,Potency,[4],"inconclusive: 68.4 µM [cytotoxic, single point]"
same,Potency,[5],active: 68.4 µM
same,Potency,[6],"inconclusive: 68.4 µM [inhibitor, single point]"
same,Potency,[7],active: 43.1 µM
same,Potency,[8],active: 6.09 µM
same,Potency,[9],active: 13.8 µM
N/C(=N\N=C\c1ccc(Cl)cc1)N/N=C/c1ccc(Cl)cc1,Potency,[1],"inconclusive: 29.8 µM [cytotoxic, partial curve]"
same,Potency,[2],"inconclusive: 33.5 µM [inhibitor, single point]"
same,Potency,[7],"inconclusive: 23.7 µM [cytotoxic, partial curve]"
same,Potency,[8],inactive
same,Potency,[9],active: 23.9 µM
CC(C)OC(=O)C(C)(C)Oc1ccc(C(=O)c2ccc(Cl)cc2)cc1,Potency,[1],inactive
same,Potency,[2],inactive
same,Potency,[3],"inconclusive: 77 µM [inhibitor, single point]"
same,Potency,[10],"inconclusive: 34.4 µM [cytotoxic, partial curve]"
same,Potency,[11],inconclusive: 31.7 µM [inhibitor]
same,activation,[8],inconclusive: -2.43% [at 42.5 µM]
CCCCCCCCCCCCCCCCCC[N+](C)(C)C,Potency,[1],"inconclusive: 68.8 µM [cytotoxic, single point]"
same,Potency,[2],active: 54.6 µM
same,Potency,[3],inconclusive: 48.7 µM [inhibitor]
same,Potency,[4],"inconclusive: 54.6 µM [cytotoxic, partial curve]"
same,Potency,[6],"inconclusive: 68.8 µM [inhibitor, single point]"
same,Potency,[7],inconclusive: 68.8 µM [cytotoxic]
same,activation,[8],inconclusive: 29.6%
CC=O,Potency,[1],inconclusive: 71.7 µM [cytotoxic]
same,Potency,[2],active: 25.5 µM
same,Potency,[3],"inconclusive: 14.3 µM [inhibitor, partial curve, poor fit]"
same,Potency,[10],active: 28.6 µM
same,Potency,[4],"inconclusive: 16.1 µM [cytotoxic, full curve]"
same,Potency,[5],"inconclusive: 10.1 µM [cytotoxic, full curve]"
same,Potency,[8],"inconclusive: 63.9 µM [activator, single point]"
CN1CCN(c2ccccc2/C=C2\SCCN(c3ccc(Cl)c(Cl)c3)C2=O)CC1,Potency,[1],"inconclusive: 68.6 µM [cytotoxic, single point]"
same,Potency,[2],active: 48.6 µM
same,Potency,[3],"inconclusive: 68.6 µM [inhibitor, single point]"
same,Potency,[5],active: 24.3 µM
same,Potency,[12],inconclusive: 54.5 µM
same,Potency,[8],"inconclusive: 68.6 µM [inhibitor, single point]"
CC(C)CCCCCCc1ccc(O)cc1,Potency,[1],"active: 78.3 µM and inconclusive: 61.1 µM [cytotoxic, partial curve]"
same,Potency,[2],active: 27.3 µM
same,activation,[3],inconclusive: -3% [phenotype inactive]
same,Potency,[6],active: 1.11 µM and inconclusive: 24.3 µM [inhibitor]
same,Potency,[7],active: 48.6 µM
same,Potency,[9],"active: 11.2 µM and inconclusive: 54.9 µM [cytotoxic, single point]"
O=CCc1ccccc1,Potency,[1],inactive
same,Potency,[2],inactive
On1ccccc1=S,Potency,[1],"inconclusive: 24.1 µM [rising, partial curve]"
same,Potency,[2],"inconclusive: 0.27 µM [inhibitor, full curve, poor fit]"
same,Potency,[3],"inconclusive: 0.215 µM [inhibitor, full curve]"
same,Potency,[4],active: 1.21 µM
same,Potency,[7],active: 0.605 µM
same,activation,[8],inconclusive: 15.6%
Clc1ccc(C(Cn2ccnc2)OCc2ccsc2Cl)c(Cl)c1 (stereo not drawn),Potency,[1],"inconclusive: 33.5 µM [cytotoxic, single point]"
same,Potency,[2],"inconclusive: 33.5 µM [inhibitor, single point]"
same,Potency,[3],"inconclusive: 33.5 µM [activator, partial curve, poor fit]"
same,Potency,[10],active: 21.1 µM
same,Potency,[4],"inconclusive: 33.5 µM [cytotoxic, partial curve, poor fit]"
same,Potency,[5],inconclusive: 26.6 µM [cytotoxic]
same,Potency,[13],active: 23.7 µM
same,Potency,[7],inconclusive: 29.8 µM [cytotoxic]
same,Potency,[8],"inconclusive: 18.8 µM [activator, partial curve]"
same,Potency,[9],inactive
NC(=O)C1(N2CCCCC2)CCN(CCCN2c3ccccc3CCc3ccc(Cl)cc32)CC1,Potency,[1],"inconclusive: 33.5 µM [cytotoxic, single point]"
same,Potency,[2],"inconclusive: 33.5 µM [inhibitor, single point]"
same,Potency,[3],"inconclusive: 29.8 µM [inhibitor, partial curve]"
same,Potency,[10],active: 29.8 µM
same,Potency,[4],"inconclusive: 33.5 µM [cytotoxic, single point]"
same,Potency,[5],"inconclusive: 33.5 µM [cytotoxic, single point]"
same,Potency,[6],"inconclusive: 33.5 µM [inhibitor, single point]"
same,Potency,[7],active: 26.6 µM
same,activation,[8],inconclusive: -17.5% [at 42.5 µM]
